The source of these data is US20150218285A1 (TORAY INDUSTRIES, published 2015).

For this assay, the target named is T1, CAPRIN-1 protein on the cell surface of human cancer cells (human, UniProt Q14444 2-709).
T1 sequence (looked up): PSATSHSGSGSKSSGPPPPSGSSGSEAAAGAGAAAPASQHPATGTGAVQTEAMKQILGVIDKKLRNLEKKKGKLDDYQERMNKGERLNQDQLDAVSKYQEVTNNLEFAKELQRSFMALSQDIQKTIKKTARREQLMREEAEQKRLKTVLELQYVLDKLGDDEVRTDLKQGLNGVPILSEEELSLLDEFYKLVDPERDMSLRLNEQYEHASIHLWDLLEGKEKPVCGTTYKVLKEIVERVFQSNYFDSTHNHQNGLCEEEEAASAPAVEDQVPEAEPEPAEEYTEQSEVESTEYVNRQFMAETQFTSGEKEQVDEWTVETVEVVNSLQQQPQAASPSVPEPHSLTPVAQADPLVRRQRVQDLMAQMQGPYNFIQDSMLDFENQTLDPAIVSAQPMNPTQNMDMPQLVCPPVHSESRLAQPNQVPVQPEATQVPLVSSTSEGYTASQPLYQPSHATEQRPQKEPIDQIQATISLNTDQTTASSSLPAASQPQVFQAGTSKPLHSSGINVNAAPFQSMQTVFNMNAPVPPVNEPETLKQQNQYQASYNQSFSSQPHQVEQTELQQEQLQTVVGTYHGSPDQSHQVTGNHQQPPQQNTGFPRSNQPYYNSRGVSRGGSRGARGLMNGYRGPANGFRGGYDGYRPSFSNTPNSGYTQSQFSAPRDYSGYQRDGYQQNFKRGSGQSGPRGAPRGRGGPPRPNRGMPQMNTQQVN
The assay can be described thus: cell-based or functional assay.

A value given as a limit tells only on which side of the number the result lay.

B1: human-mouse chimeric anti-CAPRIN-1 antibody #33 (antibody, human IgG1, kappa)
heavy: GPGLVKPSQSLSLTCSVTGYSITSGYYWNWIRQFPGNKLEWMGYISYDGSNNYNPSLKNRISITRDTSKNQFFLKLNSVTTEDTATYYCATGMAWFAYWAKDSVTPP[no letters for human IgG1 constant region]
light: SPSSLAVSVGEKVTMS[no letters for about 80 residues][no letters for about 120 residues]
In the case of B1, the “cytotoxicity (ADCC, 51Cr release, human NK cells) on Hep3B, HepG2, SK-Hep-1, SW480” value was ≥ 20%.
